Experimental data as given in the supplement of paper PMC10369915.
The other results are listed elsewhere or left out. Rule as the data show it: active = 3.2 or more and inactive = the rest. The signal is at background level for most entries.

B1: POR_Y564 (peptide)
chain: ETLLYYGCRRS
B2: PMM2_Y145_R141C (peptide)
chain: ECIEFYELDKK
B3: PLP1_Y50_Y50C_YF (peptide)
chain: KLIETCFSKNF
B4: PMS2_Y181 (peptide)
chain: NIKKEYAKMVQ
B5: PLOD1_Y675_G678R (peptide)
chain: RVGVDYEGRGC
B6: PPFIBP2_Y663_R658G (peptide)
chain: GRMLQYLTVND
B7: PLXNA2_Y293_K289M (peptide)
chain: PMFHSYVSLPF
B8: POR_Y573_Y575C (peptide)
chain: RSDEDYLCREE
B9: PLP1_Y207_D203V (peptide)
chain: AVARMYGVLPW
B10: PLXND1_Y616_P617S (peptide)
chain: DVRQEYSGMIL
B11: POMT1_Y581 (peptide)
chain: DTNIAYWLHPR
B12: PLP1_Y50_L46R_YF (peptide)
chain: KRIETYFSKNF
B13: POLD1_Y809 (peptide)
chain: ISKKRYAGLLF
B14: POR_Y575_Y575C_YF (peptide)
chain: DEDFLCREELA
B15: POR_Y564_C566Y (peptide)
chain: ETLLYYGYRRS
B16: PPIG_Y320 (peptide)
chain: SQPASYQRRLL
B17: PMS2_Y181_A182T (peptide)
chain: NIKKEYTKMVQ
B18: POLD1_Y809_R808H (peptide)
chain: ISKKHYAGLLF

What was measured:
Experiment in all cases: enrichment score (SH2-bound / input frequency) (ratio); bacterial display of known human phosphotyrosine sites (pTyr-Var adds point mutants) read by sequencing; higher = stronger binding; tyrosines were phosphorylated by kinases first
Conditions in all cases: peptide library: pTyr-Var
SHP2 C-SH2 domain E139D = target: SHP2 C-SH2 domain E139D
[1] = target: SHP2 C-SH2 domain wild-type
SHP2 N-SH2 domain L43F = target: SHP2 N-SH2 domain L43F
SHP2 N-SH2 domain T42A = target: SHP2 N-SH2 domain T42A
SHP2 N-SH2 domain T52S = target: SHP2 N-SH2 domain T52S
[2] = target: SHP2 N-SH2 domain wild-type
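Also: displayed peptides selected on beads carrying the immobilized SH2 domain, with library peptides lacking any tyrosine serving as negative controls.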

| Binder | enrichment score (SHP2 C-SH2 domain E139D) | enrichment score [1] | enrichment score (SHP2 N-SH2 domain L43F) | enrichment score (SHP2 N-SH2 domain T42A) | enrichment score (SHP2 N-SH2 domain T52S) | enrichment score [2] |
| --- | --- | --- | --- | --- | --- | --- |
| B1 | inactive: 0.209 | inactive: 0.282 | inactive: 0.377 | inactive: 0.219 | inactive: 0.265 | inactive: 0.433 |
| B2 | inactive: 0.827 | inactive: 1.1 | inactive: 0.854 | inactive: 0.873 | inactive: 0.8 | inactive: 1.06 |
| B3 | inactive: 0.863 | inactive: 1.04 | inactive: 0.855 | inactive: 0.786 | inactive: 0.817 | inactive: 1.17 |
| B4 | inactive: 0.651 | inactive: 0.623 | inactive: 0.668 | inactive: 0.632 | inactive: 0.645 | inactive: 0.717 |
| B5 | inactive: 0.512 | inactive: 0.612 | inactive: 0.621 | inactive: 0.433 | inactive: 0.581 | inactive: 0.52 |
| B6 | inactive: 1.32 | inactive: 1.09 | inactive: 3.02 | active: 3.8 | active: 3.65 | inactive: 1.11 |
| B7 | inactive: 1.51 | inactive: 1.8 | inactive: 1.67 | active: 4.84 | inactive: 1.57 | inactive: 1.22 |
| B8 | inactive: 0.721 | inactive: 0.761 | inactive: 0.823 | inactive: 0.48 | inactive: 0.7 | inactive: 0.758 |
| B9 | inactive: 0.924 | inactive: 0.745 | inactive: 0.534 | inactive: 0.638 | inactive: 0.606 | inactive: 0.874 |
| B10 | inactive: 0.702 | inactive: 0.557 | inactive: 0.503 | inactive: 0.685 | inactive: 0.538 | inactive: 0.862 |
| B11 | inactive: 0.784 | inactive: 0.823 | inactive: 0.824 | inactive: 1.11 | inactive: 0.847 | inactive: 0.903 |
| B12 | inactive: 0.685 | inactive: 0.628 | inactive: 0.618 | inactive: 0.526 | inactive: 0.607 | inactive: 0.739 |
| B13 | inactive: 0.568 | inactive: 0.619 | inactive: 0.595 | inactive: 1.2 | inactive: 0.705 | inactive: 0.494 |
| B14 | inactive: 0.453 | inactive: 0.691 | inactive: 0.51 | inactive: 0.714 | inactive: 0.504 | inactive: 0.608 |
| B15 | inactive: 0.308 | inactive: 0.208 | inactive: 0.228 | inactive: 0.264 | inactive: 0.287 | inactive: 0.325 |
| B16 | inactive: 0.325 | inactive: 0.247 | inactive: 0.352 | inactive: 0.298 | inactive: 0.278 | inactive: 0.428 |
| B17 | inactive: 0.804 | inactive: 0.881 | inactive: 0.614 | inactive: 0.699 | inactive: 0.783 | inactive: 0.626 |
| B18 | inactive: 2.87 | active: 5.39 | inactive: 2.65 | active: 5.2 | inactive: 3.16 | inactive: 1.92 |
